# Laboratory results as given in ChEMBL document CHEMBL4888484, “Replenishing the malaria drug discovery pipeline: Screening and hit evaluation of the MMV Hit Generation Library 1 (HGL1) against asexual blood stage Plasmodium falciparum ,using a nano luciferase reporter read-out” (2022).
# Screen size: about 150,000 compounds; about 540 (0.36%) showed an effect of 50% or more. The list shows a part of the results.
# System: Plasmodium falciparum
# Experiment: Primary screen in NF54 nanoGlo assay, in single point, at 2uM, 72h; a lower Z score goes with more inhibition
# Assay type: functional, Erythrocyte
# Conditions: timepoint 72 hour
Structure (SMILES),% Inhibition [%],Z score
C[C@@H](CCNC(=O)N1CCN(c2ccc3nccn3n2)CC1)n1ccnc1,-9,1.01
CC1CN(c2nc3ccccc3nc2C(C#N)S(=O)(=O)c2cccc(Cl)c2)CC(C)O1 (stereo unspecified),31,-3.53
CCn1ccnc1-c1nccn1-c1ccc(NS(C)(=O)=O)c(OC)c1,-11,1.67
Cn1ccnc1CN(Cc1cc(=O)n2c3c(cccc13)CCC2)C1CC1,6,-1.15
O=C(N[C@H]1CCO[C@@H]1c1cncc(Br)c1)C1CC1C1CC1 (stereo partly specified),-8,1.22
COC[C@H]1CCCCN1Cc1cn(-c2ccccc2)nc1-c1ccc2c(c1)OCO2,-1,0.15
Cn1cc(S(=O)(=O)NCc2nnc3n2CCCCC3)cn1,-1,0.06
Cc1ncnc(N2CCN(C(=O)C[C@H](C)n3ccnc3C)CC2)c1C,-1,0.11
CC1CC(C)CN(C(=O)CN(CCO)Cc2ccsc2)C1 (stereo unspecified),-7,1.07
Cc1cc(C)cc(CN(Cc2ccccc2)[C@@]2(CO)CCOC2)c1,9,-1.57
COc1cc(CN(C)Cc2c(C)noc2C)ccc1OC[C@@H](O)CN1CCCC1,4,-0.58
Cc1ccc(-n2ccnc2)c(C(=O)N2CCS(=O)(=O)C(C)C2C)c1 (stereo unspecified),-18,1.5
CN(C)C(=O)N(CCN1CCCCC1)[C@H]1CCN(C(=O)Cc2ccc(F)cc2)C1,-5,0.73
CO[C@H]1CCCN(C(=O)CCN2CCCCC2=O)C1,-6,0.84
CC(C)CCOc1ccc(CN(CC(C)(C)N(C)C)S(=O)(=O)c2cccnc2)cc1,-1,0.11
CN(C1CCCCC1O)S(=O)(=O)c1ccc(N2CCCC2=O)cc1 (stereo unspecified),9,-1.68
CC1(C(=O)N2CCCC(CN3CCOCC3)C2)CC1(Cl)Cl (stereo unspecified),-13,1.37
O=C(COC(=O)c1cnc(O)nc1O)Nc1ccccc1F,-8,1.55
CNS(=O)(=O)C1CCN(C(=O)NC2CCC2)CC1,-8,1.25
CCCc1ncncc1C(=O)N1CC[C@@](O)(C2CCOCC2)[C@H](C)C1,2,-0.27
CCC[C@H]1C(=O)NCCN1c1nc(C)nc2c1cnn2C,13,-1.72
CC(C)c1nnc(NC(=O)c2cnc3ccccc3n2)s1,-12,1.55
CC(C)CN(CC(F)(F)F)C(=O)CNc1ccc2c(c1)C(=O)NC2,-8,1
O=C(CCOc1ccccc1)N1C[C@@H](CN2CCOCC2)C[C@H](CO)C1,-11,1.39
COc1ccc(C(=O)N[C@H]2CO[C@H]3[C@@H]2OC[C@@H]3n2nnnc2Oc2ccc3c(c2)OCO3)cc1,12,-1.34
CC(C)C1CCC(NC(=O)N(C)C2CCC(CO)CC2)CC1 (stereo unspecified),-5,0.75
CCC(CC)CN1CC2(CCN(Cc3cnn(C)c3C)CC2)OC1=O,-9,1.72

Structure (SMILES),% Inhibition [%],Z score
O=C(N[C@@H]1COCC[C@@H]1Oc1cccc(F)c1)c1cnccn1,6,-0.59
O=C(c1ccc(Cl)s1)N1CCN(c2ncc(F)cn2)C(=O)C1,19,-2.35
CCCCN(C)C(=O)Cc1c(C(=O)O)c(C)cn1CC,-7,0.93
Cc1ccc(C)c(NS(=O)(=O)c2cc(C(=O)NC3CC3)ccc2Cl)c1,-48,5.69
C=CCn1ncc2c(=O)[nH]c(N3CCC[C@H](n4ccnc4C)C3)nc21,2,-0.4
O=C(C1COCCN1)N1CCCC(CN2CCN(c3ccccn3)CC2)C1 (stereo unspecified),12,-1.73
O=C(O)c1csc(-c2csc(CCN3C(=O)c4ccccc4C3=O)n2)n1,36,-4.1
CC1CN(S(=O)(=O)c2cccc3nonc23)CC(C)O1 (stereo unspecified),-13,2.54
O=C(Cn1c(=O)n(CC2CCC(C(=O)NCCc3ccccc3)CC2)c(=O)c2ccccc21)Nc1ccccc1 (stereo unspecified),2,-0.31
COCCN(Cc1c(C(C)C)nn(-c2ccccc2)c1Oc1ccccc1F)C(=O)C1CCC1,0,-0.05
Cn1c(=O)n([C@H]2CCCN(C(=O)NC3CCCCC3)C2)c2ncccc21,-2,0.39
C[C@@H](C(=O)NCC(=O)C1CC1)n1nnnc1C(C)(C)C,-13,1.1
Cc1cc(Cl)c2ccccc2c1NC(=O)C1CCOCC1,-13,1.98
C[C@H](NC(=O)COc1ccc(-c2ncccn2)cc1CN(C)C)c1ccco1,-7,0.77
Cc1cccc(NC(=O)NCCCNC(=O)C2CCC2)c1Cl,-18,3.45
Cc1c(NC(=O)N[C@H]2CCCC23CCOCC3)cccc1N(C)C,-2,0.27
CC(=O)N[C@H]1C[C@H]2CN(Cc3ccc(F)cc3Cl)[C@@H](C)C(=O)N2C1,-23,2.06
CC1(C)CN(CCCC#N)c2cccc(Cl)c21,-4,0.51
Cc1nc(-n2cnnc2)ccc1-c1ccc(C(=O)N2CC[C@@H](O)C2)cc1,-10,1.72
Cc1cc(CC(=O)N(Cc2cc(F)ccc2F)C2CCCC2)no1,2,-0.37
Cc1nc(C2CCCN2CC(O)Cn2cccn2)[nH]c1C (stereo unspecified),-3,0.55
Cc1c(Cl)cccc1N1C(=O)CN(S(=O)(=O)c2ccccc2)C[C@@]1(C)C(=O)NCCC(C)C,3,-0.33
CCC(C)(C)C(=O)N1CCN(c2ncccc2NC(=O)c2ccc3c(c2)OCO3)CC1,3,-0.44
CC(NC(=O)Nc1cc(C2CCCOC2)nn1C)c1ccc(F)cc1F (stereo unspecified),15,-1.88
O=C(N[C@H]1CCCc2c(O)cccc21)c1cnc2ccccc2n1,-5,0.68
CNC(=O)[C@H]1CCN(C(=O)c2coc(-c3ccccc3Cl)n2)C1,-3,0.39
